The values below come from PubChem BioAssay AID1347044 (National Center for Advancing Translational Sciences (NCATS), 2019).

SMILES strings stand for the structures. The list shows a part of the results. Shown are side measurements of this screen, not its main read-out; they come without a call. Compounds called inactive in the main read-out are mostly missing here. Potencies come from curve fits of mixed quality, noted in brackets.
Tags give direction and shape of the fitted curve.

The nature of this assay: Natriuretic polypeptide receptor (hNpr1) antagonism - Confirmation. Note: nearly all actives have a fitted effect of over 70% in size. The settings on record: HEK293 hNpr1 cGMP GloSensor luminescence, ANP-stimulated; measured here: HEK-hNpr1 cytotoxicity, CellTiter-Glo. In outline:
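HEK293 cells co-expressing hNpr1 and GloSensor cGMP sensor preloaded 2 h with 2% GloSensor reagent, compounds added 30 min at room temperature, then 0.1 nM hNppA for 20 min; luminescence read before and after agonist. Cytotoxicity counter-screen run.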
For `CC1Oc2ccc(NC(=O)Cc3ccccc3)cc2CN(Cc2ccc(Cl)cc2)C1=O` (centres undefined), the CC50 was 43.2 µM [falling, single point].

In the case of `Cc1nc(N2CCC(NC(=O)Cc3ccccc3Cl)CC2)cc(C(F)(F)F)n1`, the CC50 was 13.7 µM [falling, partial curve].

As to `O=C(c1ccccc1)N1CCC(C(=O)N2CCC(Cc3nc(-c4ccc(F)cc4)no3)CC2)CC1`, the CC50 is 17.2 µM [falling, partial curve].

Turning to `OC1CC(c2cc(N3CCN(c4nsc5ccccc45)CC3)ncn2)C1` (centres undefined), the CC50 is 4.85 µM [falling, full curve].

On to `COc1ccc(C(C)NC(=O)C2CCN(c3cc(C(F)(F)F)ncn3)CC2)cc1` (centres undefined), for which the CC50 was 21.7 µM [falling, partial curve].

Regarding `Cc1ccc(CNC(=O)C2CCN(c3cc(C(F)(F)F)ncn3)CC2)cc1`, the CC50 was 19.3 µM [falling, partial curve].

Turning to `CC1=NS(=O)(=O)N(C)C=C1C(=O)OCc1nc(-c2cccc(C)c2)no1`, the CC50 was 21.7 µM [falling, partial curve].

Consider `CCN(CC)C(=O)N1CCC(Oc2ccc(-c3noc(COC)n3)cc2)C1` (centres undefined), for which the half-maximal cytotoxic concentration (CC50) was 15.3 µM [falling, partial curve].

On to `FC(F)(F)c1ccc(N2C3CCC2CN(Cc2cccc(-c4cccnc4)c2)C3)cc1`, for which the CC50 is 7.69 µM [falling, partial curve].

In the case of `CCNC(=O)N1CCC(Cc2ccc(C(=O)NCCc3c[nH]c4ccccc34)cc2)CC1`, the CC50 is 24.3 µM [falling, partial curve].

For the compound `CCOc1ccc(C(=O)N2CCN(c3cc(-c4ccc(Cl)cc4)[nH]n3)CC2)cc1OCC`, the CC50 was 19.3 µM [falling, partial curve].

In the case of `COc1ccccc1Nc1cnc2ccc(N(C)Cc3cccnc3)nn12`, the half-maximal cytotoxic concentration (CC50) is 35.3 µM [falling, partial curve].

In the case of `O=C(c1ccc(F)cc1)N1CCCC(n2cc(-c3nc(-c4ccccc4)no3)nn2)C1` (centres undefined), the half-maximal cytotoxic concentration (CC50) was 24.3 µM [falling, partial curve].

As for `O=C(c1ccc(Br)cc1)N1CCN(c2cc(-c3ccc(Cl)cc3)[nH]n2)CC1`, the CC50 was 21.7 µM [falling, partial curve].

Regarding `COc1ccc(OCC(=O)N2CCC(Cc3nc(-c4ccc(OC)cc4)no3)CC2)cc1`, the CC50 is 19.3 µM [falling, partial curve].

As to `COC(=O)c1cccc(NC(=S)N[C@H]2CO[C@H]3[C@@H]2OC[C@@H]3n2cc(-c3ccccc3)nn2)c1`, the cytotoxic concentration (CC50) was 21.7 µM [falling, partial curve].

As for `COc1ccc(-c2noc(CC3CCN(C(=O)c4ccc(C)nc4)CC3)n2)cc1`, the CC50 was 7.69 µM [falling, full curve].

Consider `COc1cc(Cl)ccc1C(=O)NC1CCN(c2cc(C(F)(F)F)nc(C)n2)CC1`, for which the CC50 is 21.7 µM [falling, partial curve].

For the compound `N#Cc1ccc([S+](=O)([O-])N2CCC3(CC2)OCCN(CC2CC2)C3=O)cc1`, the CC50 is 31.4 µM [falling, partial curve].

`COc1ccc(CCC(=O)N2CCC(Cc3nc(-c4ccccc4)no3)CC2)cc1`: the CC50 was 19.3 µM [falling, partial curve].

Consider `COc1ccccc1C(=O)N1CCN(C(=O)c2nnn3c2COC(c2ccc(C)cc2)C3)CC1` (centres undefined), for which the CC50 is 30.6 µM [falling, single point].

`COc1ccc(C(=O)N2CCCN(c3cc(-c4ccccc4)[nH]n3)CC2)c(OC)c1`: the CC50 is 21.7 µM [falling, partial curve].

With `COc1ccccc1CN1CCc2nc(C(=O)Nc3cccc(C(F)(F)F)c3)oc2CC1`, the CC50 was 21.7 µM [falling, partial curve].

In the case of `Cc1ccccc1CN1CCc2nc(C(=O)NCc3ccncc3)oc2CC1`, the CC50 was 28 µM [falling, partial curve].

On to `CCN(CC)C(=O)c1csc(N2CCN(c3cccc(Cl)c3)CC2)n1`, for which the CC50 is 24.3 µM [falling, partial curve].

Regarding `Cc1ccc(CNC(=O)c2ccc3c(c2)CN(Cc2ccc(N(C)C)cc2)CCO3)cc1`, the CC50 was 24.3 µM [falling, partial curve].

Consider `COc1ccc(C)cc1C(=O)N1CCc2onc(-c3ccccc3F)c2C1`, for which the CC50 was 21.7 µM [falling, partial curve].

As to `COc1ccc(C(=O)N2CCCN(c3cc(-c4ccc(Cl)cc4)[nH]n3)CC2)c(C)c1`, the cytotoxic concentration (CC50) was 12.2 µM [falling, partial curve].

In the case of `CC(=O)N1CCN(c2nc3c(s2)CC(C(=O)Nc2cccc(C(C)(C)C)c2)CC3)CC1` (centres undefined), the CC50 is 19.3 µM [falling, partial curve].

As for `O=S(=O)(c1cccc(F)c1)N1CCC2(CC1)CC(Cc1nc(C3CC3)no1)CCO2` (centres undefined), the CC50 is 17.2 µM [falling, partial curve].

Take `COc1ccc(C2Cn3nnc(C(=O)N4CCN(C(=O)Cc5ccc(Cl)cc5)CC4)c3CO2)cc1` (centres undefined): the CC50 was 21.7 µM [falling, partial curve].

Regarding `Cc1ccc(C(=O)N[C@H]2CO[C@H]3[C@@H]2OC[C@@H]3n2nnnc2Oc2ccccc2)cc1`, the CC50 is 17.7 µM [falling, partial curve].

For the compound `O=C(Nc1ccc(Cl)cc1)c1nc2c(o1)CCN(Cc1ccc3cn[nH]c3c1)CC2`, the CC50 was 11.1 µM [falling, partial curve].

For `COc1ccc(C(=O)N2CCC3(CC2)CC(c2cccc(C(F)(F)F)c2)=NO3)cc1`, the CC50 was 27.3 µM [falling, partial curve, poor fit].

Take `FC(F)(F)c1ccc(O[C@H]2COCCN(c3nc4ccccc4o3)C2)nc1`: the 50% cytotoxic concentration (CC50) was 62.7 µM [falling, single point].

Consider `CN(Cc1cnc2ccccc2c1)C(=O)c1ccc(CCC(C)(C)O)cc1`, for which the CC50 was 6.85 µM [falling, partial curve].

Take `CCc1ccc(C(=O)N2CCC(Cc3nc(-c4cccc(OC)c4)no3)CC2)cc1`: the CC50 was 17.2 µM [falling, partial curve].

Take `COc1ccc(C(=O)N2CCN(c3cc(-c4ccc(Cl)cc4)[nH]n3)CC2)cc1OC`: the CC50 was 17.2 µM [falling, partial curve].

For `Cc1ccc(C2Cn3nnc(C(=O)N4CCN(C(=O)c5cccc(C)c5)CC4)c3CO2)cc1` (centres undefined), the CC50 was 19.3 µM [falling, partial curve].

As a reminder, the CC50 is the concentration giving 50% cytotoxicity.
